# Assay results as given in PubChem BioAssay AID1476 (National Center for Advancing Translational Sciences (NCATS), 2009).
# In all, about 200,000 compounds went through this assay and about 4,500 (2.2%) were called active. The inconclusive results got no clear call from the source; some entries with a clear call stand among them for comparison. The call rests on the fitted dose curve; in most records, active means well fitted inhibition curve with a large enough effect; inconclusive means small, poorly fitted or top-dose-only effect, or effect the other way; inactive means flat fitted curve, though single readings scatter. Where the call is inconclusive, the potency comes from a doubtful curve fit.
# Biological target: Cruzipain (Trypanosoma cruzi) (UniProt P25779)
# Assay: qHTS Assay for Promiscuous and Specific Inhibitors of Cruzain (without detergent); further: nearly all actives have a fitted effect of over 40% in size;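 on max response, negative = inhibition: plate controls were enzyme without inhibitor for no effect and buffer without enzyme for full effect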
# Conditions: purified cruzain, Z-FR-AMC fluorescence, no detergent
# How it was run: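 Purified cruzain at 1.5 nM, pre-incubated 15 min with compound at room temperature in 100 mM sodium acetate pH 5.5, 5 mM DTT, 0.00005% Triton X-100. Reaction started with 2 uM Z-FR-AMC; AMC fluorescence increase over 60 s gives rate.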
# Potency means the concentration at half of the fitted maximal effect; tags describe the fitted curve by direction and shape.
# UniProt P25779, sequence (P25779 whole entry, looked up): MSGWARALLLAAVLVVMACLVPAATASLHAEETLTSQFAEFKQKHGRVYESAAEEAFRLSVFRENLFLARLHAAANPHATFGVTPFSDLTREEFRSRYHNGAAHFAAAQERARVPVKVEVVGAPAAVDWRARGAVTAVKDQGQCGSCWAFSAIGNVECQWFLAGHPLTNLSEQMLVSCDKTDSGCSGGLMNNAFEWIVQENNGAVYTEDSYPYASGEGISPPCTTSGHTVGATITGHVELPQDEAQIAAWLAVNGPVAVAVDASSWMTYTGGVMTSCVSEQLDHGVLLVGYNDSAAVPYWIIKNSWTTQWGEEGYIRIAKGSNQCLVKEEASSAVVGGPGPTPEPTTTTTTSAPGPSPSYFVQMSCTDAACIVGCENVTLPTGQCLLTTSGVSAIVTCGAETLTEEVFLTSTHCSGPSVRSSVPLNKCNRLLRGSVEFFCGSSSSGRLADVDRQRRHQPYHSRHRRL
SMILES,Potency,"max response, negative = inhibition"
CCOc1c2ccc(C(=O)NCc3cc(C(F)(F)F)cc(C(F)(F)F)c3)cc2nn1CCOC,"inconclusive: 39.8 µM [activator, single point]",
O=c1[nH]c(CN2CC=C(c3ccccc3)CC2)nc2cc(C(F)(F)F)ccc12,"inconclusive: 31.6 µM [inhibitor, single point]",
Cc1ccc(Cn2c(=N)c(C(=O)NCc3ccco3)cc3c(=O)n4ccccc4nc32)cc1,"inconclusive: 20 µM [inhibitor, partial curve, poor fit]",
Cc1ccc(NC(=O)N2CCc3c([nH]c4ccccc34)C2c2ccccc2F)c(Cl)c1 (configuration not stated),"inconclusive: 20 µM [inhibitor, partial curve, poor fit]",
CCCN1Cc2cccc(C(=O)Nc3ccc(OC)cc3OC)c2C1=O,,inactive: -4.06%
COC(=O)c1ccccc1NC(=S)N(Cc1ccc2c(c1)OCO2)Cc1cc2ccc(C)cc2[nH]c1=O,"inconclusive: 31.6 µM [inhibitor, single point]",
COc1cc(OC)c(NC(=O)C(C)n2nc(-c3ccc(C)c(C)c3)ccc2=O)cc1Cl (configuration not stated),"inconclusive: 20 µM [activator, partial curve]",
O=C(Nc1ccc(O)c(-c2nc3ccccc3s2)c1)c1cc(=O)c2ccccc2o1,"inconclusive: 20 µM [inhibitor, single point]",
COc1cccc(NC(=O)CSc2nnc(NC(=O)NC3CCCCC3)s2)c1,,inactive: -9.37%
Cc1cccc(C)c1OCc1cc(=O)n2ccsc2n1,,inactive: 8.32%
O=C(COC(=O)Cc1ccc(-c2ccccc2)cc1)NCc1ccc(F)cc1,"inconclusive: 39.8 µM [inhibitor, single point]",
COc1ccccc1NS(=O)(=O)c1cc(NC(=S)NCCN2CCOCC2)ccc1N1CCOCC1,"inconclusive: 31.6 µM [inhibitor, single point]",
Cc1cccc(N2CCN(C(=O)c3c4c(nc5ccccc35)C(=O)N(C3CCCCC3)C4)CC2)c1C,,inactive: 0.696%
CCOC(=O)c1c(NC(=O)COC(=O)Cn2cnc3ccccc32)sc(C)c1C,,inactive: -2.56%
O=C1OCCN1C(=O)[C@H]1[C@H](c2ccc(Cl)cc2)C(c2ccccc2)=NN1c1ccc(Br)cc1,active: 11.2 µM,
CCOC(=O)N1CCN(C(=O)c2cnn(-c3cccc(C)c3)c2-n2cccc2)CC1,"inconclusive: 31.6 µM [activator, single point]",
COc1ccc(/C=N/NC(=O)CCSc2nc3ccccc3s2)cc1,"inconclusive: 39.8 µM [inhibitor, single point]",
